Values joined by “and” are separate entries in the source; they are usually repeats but may differ in a detail not shown here. Equal values may be shown once. The campaign covered roughly 110,000 compounds. About 230 (0.21%) showed an effect of 50% or more. Some of the results follow.
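Note: 30 min substrate incubation versus DMSO and 10 µM JCP410 controls.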

In the test the target is DPAP1 (Plasmodium falciparum, UniProt Q8IIJ9). In words: primary screen, percent inhibition; read by cleavage of a fluorogenic dipeptide substrate; higher = more effect of the substance. On the set-up: species or system P. falciparum D10 trophozoite lysates; single well.
Sequence of DPAP1 (Q8IIJ9 whole entry, looked up): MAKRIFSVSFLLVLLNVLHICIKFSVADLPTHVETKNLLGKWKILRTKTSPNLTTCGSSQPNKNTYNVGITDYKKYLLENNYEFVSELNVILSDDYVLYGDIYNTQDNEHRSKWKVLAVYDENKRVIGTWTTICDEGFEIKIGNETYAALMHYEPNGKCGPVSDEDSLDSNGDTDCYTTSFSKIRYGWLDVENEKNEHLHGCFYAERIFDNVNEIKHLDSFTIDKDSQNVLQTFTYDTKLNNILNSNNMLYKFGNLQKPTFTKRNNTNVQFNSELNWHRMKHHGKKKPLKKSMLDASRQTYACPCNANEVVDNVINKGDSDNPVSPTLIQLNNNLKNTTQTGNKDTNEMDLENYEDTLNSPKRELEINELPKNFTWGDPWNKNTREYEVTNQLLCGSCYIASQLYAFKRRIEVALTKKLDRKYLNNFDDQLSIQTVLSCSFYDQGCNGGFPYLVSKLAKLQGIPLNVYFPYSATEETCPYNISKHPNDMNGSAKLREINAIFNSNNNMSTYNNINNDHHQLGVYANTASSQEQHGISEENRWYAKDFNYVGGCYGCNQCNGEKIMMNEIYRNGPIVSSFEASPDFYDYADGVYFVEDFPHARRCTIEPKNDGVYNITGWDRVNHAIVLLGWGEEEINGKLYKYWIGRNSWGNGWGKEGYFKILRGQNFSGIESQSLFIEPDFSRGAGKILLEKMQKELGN
`O=C(NCc1ccco1)c1ccccc1Br`: the “% Inhibition @ 10 uM” value is on record as 21.4%.

Consider `CN(CCC#N)C(=O)c1cc2c(Cl)nc3ccccc3c2s1`, for which the “% Inhibition @ 10 uM” value was 1.94%.

In the case of `COc1ccc2c(Sc3ccc(Cl)cc3)c(C(=O)NCCCN3CCN(C)CC3)[nH]c2c1`, the “% Inhibition @ 10 uM” value is reported as -3.76%.

For the molecule `Cc1ccc(F)cc1NC(=O)CSc1ccc(Cl)cc1`, the “% Inhibition @ 10 uM” value is -2.64%.

For `O=S(=O)(NCc1csc(-c2cccnc2)n1)c1ccc2c(c1)OCCO2`, the “% Inhibition @ 10 uM” value is -2.45%.

Regarding `CC1CCC(C)N(C(=O)c2cc3n(n2)C(C(F)(F)F)CC(c2ccccc2)N3)C1` (stereo not shown), the “% Inhibition @ 10 uM” value is on record as -3.83%.

Regarding `COc1cc(C2C=C(c3ccc(Cl)cc3)Nc3nnnn32)cc(OC)c1OC` (stereo not shown), the “% Inhibition @ 10 uM” value turned out to be 3.32%.

Regarding `Cc1nn(-c2ccccc2)c(-n2cccc2)c1C(=O)NC1CC1`, the “% Inhibition @ 10 uM” value is recorded as 0.137%.

Regarding `CCN(CC)CC#CC(O)(C(C)C)C(C)C`, the “% Inhibition @ 10 uM” value is on record as -0.771%.

Regarding `COc1ccc2c(c1)CCc1sc(NC(=O)c3cc(Cl)ccc3OC)nc1-2`, the “% Inhibition @ 10 uM” value is -3.64%.

As for `CC(c1ccccc1)N1CC(O)C1` (stereo not shown), the “% Inhibition @ 10 uM” value is given as -3.38%.

On to `CC1CCCN(C(=O)C2c3ccccc3C(=O)N(C)C2c2c[nH]c3ccccc23)C1` (stereo not shown), for which the “% Inhibition @ 10 uM” value is -1.92%.

Consider `CCCCOc1ccccc1C1C(C(=O)OCC)=CN(C)C=C1C(=O)OCC`, for which the “% Inhibition @ 10 uM” value came to 6.48%.

Consider `COc1ccc(-n2nnc3c(=O)n(CC(=O)NCc4ccc(F)cc4)cnc32)cc1`, for which the “% Inhibition @ 10 uM” value is on record as -2.16%.

For `CN1CCC(N(C)Cc2cccc(F)c2)CC1`, the “% Inhibition @ 10 uM” value is -3.65%.

Consider `CC1CCc2c(sc3c2CSC(C(=O)NC2CC2)=C3)C1` (stereo not shown), for which the “% Inhibition @ 10 uM” value amounted to 4.48%.

`O=C(CCn1cccn1)NC1CCCCCC1`: the “% Inhibition @ 10 uM” value is given as -4.17%.

With `Cc1ccc(C(=O)c2sc3nc(-c4cccnc4)ccc3c2N)cc1`, the “% Inhibition @ 10 uM” value was -0.261%.

Take `CCOC(=O)c1c(/N=C/N(C)C)c(C#N)c2n1CCC2`: the “% Inhibition @ 10 uM” value is 2.17% and 0.0345%.

On to `COc1ccccc1NC(=O)C1=C(C)N=C2CCCC(O)=C2C1c1cccc(F)c1` (stereo not shown), for which the “% Inhibition @ 10 uM” value is on record as -2.64%.

`COc1ccccc1C(C)CC(NC(=O)OCc1ccccc1)C(=O)NCC#N` (stereo not shown): the “% Inhibition @ 10 uM” value came out at 1.35%.

With `Cc1cccn2c(=O)c3cc(C(N)=S)c(=N)n(CCc4ccccc4)c3nc12`, the “% Inhibition @ 10 uM” value was determined as 5.17%.

On to `N=C(NOC(=O)c1ccc(Br)o1)c1ccccn1`, for which the “% Inhibition @ 10 uM” value is given as 2.25%.

`CCN1CCN(C(=O)COc2ccc(S(=O)(=O)NC3CCCC3)cc2)CC1`: the “% Inhibition @ 10 uM” value worked out at 1.94%.

Regarding `Cc1ccc(C(=O)Nc2nc(-c3nnn(-c4cc(C)ccc4C)c3C)ns2)cc1`, the “% Inhibition @ 10 uM” value is reported as -12.9%.

`c1coc(CNc2nc3ccccc3n2CCN2CCCCC2)c1`: the “% Inhibition @ 10 uM” value worked out at 0.843%.

As for `CC1(C)C(=O)C(C)(C)C12SC[C@H]1C(=O)N(c3ccccc3)C(=O)[C@H]12`, the “% Inhibition @ 10 uM” value is -1.12%.

Take `O=C1OC(c2cccc(Cl)c2)=N/C1=C\c1ccco1`: the “% Inhibition @ 10 uM” value came to 1.25%.
